# Assay results published in PMC12820563.
# The list shows a part of the results. The list includes weakly bound sequences.
# Target: T1, MBP-FoxP3dN (UniProt Q99JB6)
# T1 sequence: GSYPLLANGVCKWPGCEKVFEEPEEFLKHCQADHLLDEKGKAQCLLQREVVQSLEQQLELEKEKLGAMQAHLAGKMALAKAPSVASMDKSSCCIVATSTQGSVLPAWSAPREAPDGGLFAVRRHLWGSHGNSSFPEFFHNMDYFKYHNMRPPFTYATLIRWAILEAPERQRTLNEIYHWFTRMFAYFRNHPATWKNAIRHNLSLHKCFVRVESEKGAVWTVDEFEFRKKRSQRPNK
# Assay: PD-seq (MBP pull-down with sequencing)
# Details: 20 mM Tris-HCl pH 7.5, 100 mM NaCl, 1.5 mM MgCl2, 0.4 uM protein, 0.1 uM dsDNA library, 30 min, room temperature, amylose pull-down; high values mean tight binding; double strand, one strand shown
row,Sequence,binding signal (RPM ratio (pull-down/input))
1,GATGATTGTTCTCCCAGCTGATGAATTGGTTGCCTCGAGTAAACAAATTTTCCTAATCTTTCTGTTCAAGCGCCATCTAC,2.39
2,GATGATTGTTCTCCCAGCTGATGAATTGTACCATTCGAGTAAACAAATTTTCCTAATCTTTCTGTTCAAGCGCCATCTAC,0.682
3,GATGATTGTTCTCCCAGCTGATGAATTCCTTGCGTCGAGTAAACAAATTTTCCTAATCTTTCTGTTCAAGCGCCATCTAC,0.417
4,GATGATTGTTCTCCCAGCTGATGAATTGACCGAATCGAGTAAACAAATTTTCCTAATCTTTCTGTTCAAGCGCCATCTAC,0.227
5,GATGATTGTTCTCCCAGCTGATGAATTCATCCGATCGAGTAAACAAATTTTCCTAATCTTTCTGTTCAAGCGCCATCTAC,0.221
6,GATGATTGTTCTCCCAGCTGATGAATTTCTAAAATCGAGTAAACAAATTTTCCTAATCTTTCTGTTCAAGCGCCATCTAC,0.2
7,GATGATTGTTCTCCCAGCTGATGAATTGATCTCGTCGAGTAAACAAATTTTCCTAATCTTTCTGTTCAAGCGCCATCTAC,0.276
8,GATGATTGTTCTCCCAGCTGATGAATTGGCACAGTCGAGTAAACAAATTTTCCTAATCTTTCTGTTCAAGCGCCATCTAC,0.32
9,GATGATTGTTCTCCCAGCTGATGAATTATGGCGGTCGAGTAAACAAATTTTCCTAATCTTTCTGTTCAAGCGCCATCTAC,0.638
10,GATGATTGTTCTCCCAGCTGATGAATTGACATCCTCGAGTAAACAAATTTTCCTAATCTTTCTGTTCAAGCGCCATCTAC,0.561
11,GATGATTGTTCTCCCAGCTGATGAATTACTTGTTTCGAGTAAACAAATTTTCCTAATCTTTCTGTTCAAGCGCCATCTAC,0.804
12,GATGATTGTTCTCCCAGCTGATGAATTGGGAGCTTCGAGTAAACAAATTTTCCTAATCTTTCTGTTCAAGCGCCATCTAC,0.302
13,GATGATTGTTCTCCCAGCTGATGAATTATGCAAGTCGAGTAAACAAATTTTCCTAATCTTTCTGTTCAAGCGCCATCTAC,3.21
14,GATGATTGTTCTCCCAGCTGATGAATTTCGCTAATCGAGTAAACAAATTTTCCTAATCTTTCTGTTCAAGCGCCATCTAC,0.341
15,GATGATTGTTCTCCCAGCTGATGAATTAGTCCGCTCGAGTAAACAAATTTTCCTAATCTTTCTGTTCAAGCGCCATCTAC,0.349
16,GATGATTGTTCTCCCAGCTGATGAATTGCCTTAATCGAGTAAACAAATTTTCCTAATCTTTCTGTTCAAGCGCCATCTAC,0.522
17,GATGATTGTTCTCCCAGCTGATGAATTTAGTGCTTCGAGTAAACAAATTTTCCTAATCTTTCTGTTCAAGCGCCATCTAC,1.27
18,GATGATTGTTCTCCCAGCTGATGAATTATGTACTTCGAGTAAACAAATTTTCCTAATCTTTCTGTTCAAGCGCCATCTAC,1.46
19,GATGATTGTTCTCCCAGCTGATGAATTGCACAACTCGAGTAAACAAATTTTCCTAATCTTTCTGTTCAAGCGCCATCTAC,1.01
20,GATGATTGTTCTCCCAGCTGATGAATTGGTTTCATCGAGTAAACAAATTTTCCTAATCTTTCTGTTCAAGCGCCATCTAC,0.928
21,GATGATTGTTCTCCCAGCTGATGAATTAACAGTATCGAGTAAACAAATTTTCCTAATCTTTCTGTTCAAGCGCCATCTAC,0.546

row,Sequence,binding signal (RPM ratio (pull-down/input))
1,GATGATTGTTCTCCCAGCTGATGAATTTTCCTTCTCGAGTAAACAAATTTTCCTAATCTTTCTGTTCAAGCGCCATCTAC,0.258
2,GATGATTGTTCTCCCAGCTGATGAATTGGCGCGATCGAGTAAACAAATTTTCCTAATCTTTCTGTTCAAGCGCCATCTAC,0.633
3,GATGATTGTTCTCCCAGCTGATGAATTCCCGTCTTCGAGTAAACAAATTTTCCTAATCTTTCTGTTCAAGCGCCATCTAC,0.33
4,GATGATTGTTCTCCCAGCTGATGAATTGTATAGTTCGAGTAAACAAATTTTCCTAATCTTTCTGTTCAAGCGCCATCTAC,1.58
5,GATGATTGTTCTCCCAGCTGATGAATTGAAGCAGTCGAGTAAACAAATTTTCCTAATCTTTCTGTTCAAGCGCCATCTAC,0.453
6,GATGATTGTTCTCCCAGCTGATGAATTCTCTTCATCGAGTAAACAAATTTTCCTAATCTTTCTGTTCAAGCGCCATCTAC,0.276
7,GATGATTGTTCTCCCAGCTGATGAATTAAATGCATCGAGTAAACAAATTTTCCTAATCTTTCTGTTCAAGCGCCATCTAC,2.36
8,GATGATTGTTCTCCCAGCTGATGAATTCCGTAGCTCGAGTAAACAAATTTTCCTAATCTTTCTGTTCAAGCGCCATCTAC,0.684
9,GATGATTGTTCTCCCAGCTGATGAATTTGTCGTATCGAGTAAACAAATTTTCCTAATCTTTCTGTTCAAGCGCCATCTAC,5.28
10,GATGATTGTTCTCCCAGCTGATGAATTGGGAGGTTCGAGTAAACAAATTTTCCTAATCTTTCTGTTCAAGCGCCATCTAC,0.359
11,GATGATTGTTCTCCCAGCTGATGAATTGCTAAGCTCGAGTAAACAAATTTTCCTAATCTTTCTGTTCAAGCGCCATCTAC,0.454
12,GATGATTGTTCTCCCAGCTGATGAATTACCTCGTTCGAGTAAACAAATTTTCCTAATCTTTCTGTTCAAGCGCCATCTAC,0.371
13,GATGATTGTTCTCCCAGCTGATGAATTTGGAGTGTCGAGTAAACAAATTTTCCTAATCTTTCTGTTCAAGCGCCATCTAC,1.16
14,GATGATTGTTCTCCCAGCTGATGAATTATCATTCTCGAGTAAACAAATTTTCCTAATCTTTCTGTTCAAGCGCCATCTAC,0.578
15,GATGATTGTTCTCCCAGCTGATGAATTATTCGCTTCGAGTAAACAAATTTTCCTAATCTTTCTGTTCAAGCGCCATCTAC,0.326
16,GATGATTGTTCTCCCAGCTGATGAATTACCTTTATCGAGTAAACAAATTTTCCTAATCTTTCTGTTCAAGCGCCATCTAC,0.469
17,GATGATTGTTCTCCCAGCTGATGAATTCCGTGCTTCGAGTAAACAAATTTTCCTAATCTTTCTGTTCAAGCGCCATCTAC,0.536
18,GATGATTGTTCTCCCAGCTGATGAATTTCGAAGTTCGAGTAAACAAATTTTCCTAATCTTTCTGTTCAAGCGCCATCTAC,0.305
19,GATGATTGTTCTCCCAGCTGATGAATTCGGGCGGTCGAGTAAACAAATTTTCCTAATCTTTCTGTTCAAGCGCCATCTAC,0.262
20,GATGATTGTTCTCCCAGCTGATGAATTCTCCCAGTCGAGTAAACAAATTTTCCTAATCTTTCTGTTCAAGCGCCATCTAC,0.211
21,GATGATTGTTCTCCCAGCTGATGAATTCGCGAGCTCGAGTAAACAAATTTTCCTAATCTTTCTGTTCAAGCGCCATCTAC,0.315

row,Sequence,binding signal (RPM ratio (pull-down/input))
1,GATGATTGTTCTCCCAGCTGATGAATTCGAATTCTCGAGTAAACAAATTTTCCTAATCTTTCTGTTCAAGCGCCATCTAC,0.557
2,GATGATTGTTCTCCCAGCTGATGAATTGGTCTGATCGAGTAAACAAATTTTCCTAATCTTTCTGTTCAAGCGCCATCTAC,0.271
3,GATGATTGTTCTCCCAGCTGATGAATTCAGTGAATCGAGTAAACAAATTTTCCTAATCTTTCTGTTCAAGCGCCATCTAC,0.29
4,GATGATTGTTCTCCCAGCTGATGAATTAGGACCTTCGAGTAAACAAATTTTCCTAATCTTTCTGTTCAAGCGCCATCTAC,0.324
5,GATGATTGTTCTCCCAGCTGATGAATTTTGCCTTTCGAGTAAACAAATTTTCCTAATCTTTCTGTTCAAGCGCCATCTAC,5.56
6,GATGATTGTTCTCCCAGCTGATGAATTCCACCAGTCGAGTAAACAAATTTTCCTAATCTTTCTGTTCAAGCGCCATCTAC,0.199
7,GATGATTGTTCTCCCAGCTGATGAATTGGTCACATCGAGTAAACAAATTTTCCTAATCTTTCTGTTCAAGCGCCATCTAC,0.592
8,GATGATTGTTCTCCCAGCTGATGAATTGCTCGTCTCGAGTAAACAAATTTTCCTAATCTTTCTGTTCAAGCGCCATCTAC,0.593
9,GATGATTGTTCTCCCAGCTGATGAATTACGTAGGTCGAGTAAACAAATTTTCCTAATCTTTCTGTTCAAGCGCCATCTAC,0.438
10,GATGATTGTTCTCCCAGCTGATGAATTTCTTGCCTCGAGTAAACAAATTTTCCTAATCTTTCTGTTCAAGCGCCATCTAC,0.494
11,GATGATTGTTCTCCCAGCTGATGAATTCGTCTAATCGAGTAAACAAATTTTCCTAATCTTTCTGTTCAAGCGCCATCTAC,0.424
12,GATGATTGTTCTCCCAGCTGATGAATTATCACAGTCGAGTAAACAAATTTTCCTAATCTTTCTGTTCAAGCGCCATCTAC,0.277
13,GATGATTGTTCTCCCAGCTGATGAATTTATTGATTCGAGTAAACAAATTTTCCTAATCTTTCTGTTCAAGCGCCATCTAC,5.78
14,GATGATTGTTCTCCCAGCTGATGAATTCCCTCTTTCGAGTAAACAAATTTTCCTAATCTTTCTGTTCAAGCGCCATCTAC,0.253
15,GATGATTGTTCTCCCAGCTGATGAATTTACACCTTCGAGTAAACAAATTTTCCTAATCTTTCTGTTCAAGCGCCATCTAC,0.678
16,GATGATTGTTCTCCCAGCTGATGAATTTGGGAGATCGAGTAAACAAATTTTCCTAATCTTTCTGTTCAAGCGCCATCTAC,0.242
17,GATGATTGTTCTCCCAGCTGATGAATTACCGACTTCGAGTAAACAAATTTTCCTAATCTTTCTGTTCAAGCGCCATCTAC,0.528
18,GATGATTGTTCTCCCAGCTGATGAATTGTTTGAGTCGAGTAAACAAATTTTCCTAATCTTTCTGTTCAAGCGCCATCTAC,1.16
19,GATGATTGTTCTCCCAGCTGATGAATTGCGTTGCTCGAGTAAACAAATTTTCCTAATCTTTCTGTTCAAGCGCCATCTAC,1.52
20,GATGATTGTTCTCCCAGCTGATGAATTCGACTACTCGAGTAAACAAATTTTCCTAATCTTTCTGTTCAAGCGCCATCTAC,0.49
21,GATGATTGTTCTCCCAGCTGATGAATTTGCAAAATCGAGTAAACAAATTTTCCTAATCTTTCTGTTCAAGCGCCATCTAC,0.356
